Measurements reported in PubChem BioAssay AID2060612 (Molecular Pharmacology Branch, DTP, NCI, 2025).
A number of entries come with more than one value. Only these are listed. There may be further records. Results that share an entry are repeated measurements (runs, samples, wells, individuals or studies). Brackets with × stand for listed records that agree. A date in brackets names the month of the test.

Tested on: 565232-114-T-J1-PDC complex spheroid viability
Experiment: Anticancer human tumor 565232-114-T-J1-PDC patient-derived bladder carcinoma cell line growth inhibition [CLK]
Conditions: stronger effect = lower value
Excerpt: A high-throughput screen of multi-cell type tumor spheroids was designed to identify active combinations of […] and targeted small molecules. Complex spheroids include a stromal component modeled by human endothelial cells (HUVEC) and fibroblasts modeled by human mesenchymal stem cells (MSCs). The concentration ranges selected for each drug and investigational agent were based upon clinically achievable concentrations if the clinical Cmax of the agent was known.
Compounds. The drugs and investigational agents: cirtuvivint (SM08502; NSC835563), CC-671 (NSC850746), vemurafenib (NSC761431), tapotoclax (NSC804041), sotorasib (NSC818433), adagrasib (NSC831453), MRTX-1133 (NSC836407), BAY2416964 (NSC825713), copanlisib (NSC816437), inavolisib (NSC800729), abemaciclib (NSC768073), osimertinib (NSC779217), entinostat (NSC756642), eltanexor (KPT-8602, NSC794443), venetoclax (NSC766270), ceralasertib (NSC777638), bortezomib (NSC756655), olaparib (NSC753686), talazoparib (NSC767125), alisertib (NSC759677), peposertib (NSC802822), gemcitabine (NSC613327), 5-fluorouracil (NSC19893), SN-38 (NSC673596), oxaliplatin (NSC266046), paclitaxel (NSC125973), and doxorubicin (NSC123127), were obtained from the National Cancer Institute (NCI) Developmental Therapeutics Program Chemical Repository. […] If the clinical Cmax for an agent had not been determined, the highest concentration tested was 10 microM. […]
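Note: spheroids exposed to compounds for 7 days before readout; 100% = DMSO vehicle wells with luminescence normalized to vehicle control.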

Structure (SMILES) | viability, T/C (compound alone 0.1 µM) | viability, T/C (compound alone 0.0316 µM)
CCc1c2c(nc3ccc(O)cc13)-c1cc3c(c(=O)n1C2)COC(=O)[C@]3(O)CC | 41.9% [2023-07] and 9.93% [2023-08] | 
CNC(=O)c1ccc(Nc2nc(OC3CCCC3)c3c(-c4ccc5nc(C)oc5c4)c[nH]c3n2)c(OC)c1 |  | 100 (2×), 92.6, 91.5, 90.4, 84.1, 86.3, 111, 84.5, 89.3, 94.4, 87.3%
